In all, about 33,000 sequences were measured (“E-score (-0.5 to 0.5)”: median about -0.054, highest 2% from about 0.39 on). The list shows a part of the results.
target: Ylr278c (UniProt Q05854); test: PBM E-score (8-mer binding enrichment) (E-score (-0.5 to 0.5)); higher = stronger / more preferred TF binding; most listed sequences are background and not binding sites; settings: protein concentration: 200 nM; construct: GST-DNA-binding domain
Summary of the method: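 Masliner-normalised scans of fluorescent anti-GST signal were the basis for scoring. That signal came from GST-tagged yeast transcription factors applied at about 100-200 nM to double-stranded universal all-10-mer Agilent arrays on fresh or once-stripped slides. Each ungapped eight-base word, pooled with its reverse complement, received an E-score from the Universal PBM Analysis Suite.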

| Sequence | PBM E-score |
| --- | --- |
| GTCCGAAC | 0.401 |
| AGGGGCAC | -0.237 |
| CACAAACG | 0.141 |
| CCGTGGAC | 0.19 |
| AGTGGACA | 0.0408 |
| CGGGATAA | 0.309 |
| AGTTCAGG | -0.0538 |
| CACTAGAA | -0.0518 |
| CGAATTTC | 0.174 |
| CACCTCCG | 0.425 |
| ATCTAGCG | -0.113 |
| CCTTTGGC | -0.234 |
| CACGACAC | -0.0369 |
| CCACAAGA | -0.0304 |
| CCGGCGGC | 0.407 |
| ATAGCATG | -0.214 |
| GGATAAAA | 0.188 |
| AGACACAC | -0.257 |
| CGAACCCC | 0.316 |
| ATGTTGTC | -0.0406 |
| AGGTGCGC | -0.0861 |
| CCAACGAA | -0.123 |
| CTGAACCC | -0.0929 |
| AAGTAACC | -0.111 |
| GCGACAAC | -0.0599 |

| Sequence | PBM E-score |
| --- | --- |
| GTACTCCA | -0.182 |
| GAATTCTA | 0.00941 |
| GAAGTTCC | 0.125 |
| TAGACCGA | 0.0591 |
| CCTCATTC | -0.0761 |
| GCCTAATA | -0.126 |
| ATGCGTCA | -0.176 |
| ATCGTATG | -0.283 |
| CTATAAAA | -0.121 |
| AATGCGTC | -0.219 |
| CGGCTACC | 0.218 |
| CTGGCTCC | 0.101 |
| AGAGCCTC | -0.252 |
| GTTCCTTA | -0.151 |
| ACGGGAAG | -0.0803 |
| CAGAGTAA | -0.171 |
| CAGAGATA | -0.162 |
| TCATCGCA | -0.0812 |
| AGAGGCAG | -0.299 |
| AATAGTGA | -0.188 |
| AGGGAGTG | -0.316 |
| AGCACGTG | -0.266 |
| ACTAGCCC | 0.116 |
| AACTGTAT | -0.0073 |
| CCTCATAG | -0.196 |

| Sequence | PBM E-score |
| --- | --- |
| CCAGGAAG | -0.157 |
| GCTAGTAC | -0.203 |
| AGGCAACT | 0.0277 |
| TATCCTCA | -0.0486 |
| AAGGGACC | -0.164 |
| AACGAAAT | 0.0804 |
| ACAACACA | -0.262 |
| CAACCGAA | -0.0119 |
| GCGGGTAC | -0.00773 |
| ACGGTAAG | 0.101 |
| AGAATGGC | 0.175 |
| ACAGCCAT | -0.177 |
| AGTTCGAT | -0.104 |
| AATGGGGG | -0.254 |
| AAGAAAGC | -0.0825 |
| AACTCCGT | 0.486 |
| AAGAAATC | -0.0701 |
| CCCCGTGA | 0.152 |
| CGCAGGTC | -0.00274 |
| GAGAATAA | 0.0187 |
| AAACTAGC | -0.153 |
| GGATAAAC | 0.22 |
| AAAGCACA | -0.103 |
| GGTTACAA | -0.117 |
| AATACATA | -0.0847 |

| Sequence | PBM E-score |
| --- | --- |
| AACGGGCG | 0.0094 |
| AACCTGCA | -0.0893 |
| TATAAATA | 0.0789 |
| GGGTTTAC | 0.16 |
| ATACCTAA | -0.126 |
| ATACGCCG | 0.363 |
| AGCGAGTA | 0.154 |
| CTGAGACC | -0.187 |
| GATCTCAA | 0.077 |
| ACTGGCAC | -0.0817 |
| AGTGCCAA | -0.32 |
| GGATGGCC | -0.0999 |
| GCTCATGA | -0.202 |
| GAGGGGTA | -2e-05 |
| AGAGCGAA | 0.00444 |
| CATTAGAC | -0.134 |
| CTGGTCTC | -0.268 |
| GAACTGAC | 0.00651 |
| GCAACCAC | 0.00041 |
| ACCCATTG | -0.0372 |
| ACGTTGCC | -0.202 |
| CCACTAAA | -0.0539 |
| ACAACGCA | -0.0656 |
| AGTTGGAG | -0.0906 |
| CGCCTCAG | 0.0353 |

| Sequence | PBM E-score |
| --- | --- |
| ATTTGATC | 0.00681 |
| AATACCCC | 0.3 |
| CCTAGAAC | -0.0753 |
| CCTATCTA | -0.184 |
| AAAACCAG | -0.16 |
| ATGGAATA | 0.0454 |
| ATCCGTCG | 0.236 |
| TAATCCCA | -0.1 |
| GATTGGAC | -0.0691 |
| AGCAACAA | -0.0492 |
| ACGGTGAT | 0.0226 |
| CAACGCGC | 0.101 |
| AATATCTC | 0.0682 |
| ATATTGCG | 0.0799 |
| ACTCATTA | -0.0588 |
| ACAGAGCA | -0.0805 |
| GTCCTCGA | -0.178 |
| ACAGAGAT | -0.115 |
| CACGCACG | -0.0239 |
| ATTGGGTG | 0.0985 |
| ATTTTGCC | 0.0962 |
| CATCGTGG | -0.18 |
| ACCGTGGG | -0.138 |
| TGCAGTAA | -0.0162 |
| GTCCGGAA | 0.44 |

| Sequence | PBM E-score |
| --- | --- |
| ACTAGGCA | -0.197 |
| AGGTCGCA | 0.0752 |
| AGGAGGGA | -0.231 |
| GTTTCAAA | -0.133 |
| GACACCAC | 0.0102 |
| AGATAAAT | -0.0981 |
| ACGGCAGC | 0.0662 |
| CGTAGTGA | -0.147 |
| ACATACTC | -0.0476 |
| AATGTAGC | -0.00079 |
| GTCACTCA | 0.0412 |
| CAGGCGGA | 0.327 |
| TAAAGAGA | -0.0998 |
| ACTGCGTG | -0.32 |
| GCAATCTA | -0.0551 |
| GCAGCTCA | -0.0696 |
| CAGCGATC | 0.0651 |
| TGATAACA | -0.0719 |
| GGAACGCC | 0.265 |
| ACGGCCTG | 0.0277 |
| CCACCTGA | 0.0378 |
| AACACCGC | 0.27 |
| AAAATCAA | 0.0309 |
| ATCACTAC | -0.223 |
| TGTCTTAA | -0.0397 |

| Sequence | PBM E-score |
| --- | --- |
| AGTTCGGA | 0.391 |
| ATTTGCAA | -0.0483 |
| GTTTAATA | -0.158 |
| AAGCCGAA | 0.271 |
| ACTGACTA | -0.281 |
| ACCTCTAT | -0.176 |
| CCGTACCC | 0.13 |
| CGCCGCCA | 0.242 |
| AAAACCTA | -0.121 |
| AAGTAAAA | -0.0136 |
| AATCCAAG | -0.118 |
| TCCGGACA | 0.456 |
| TACCTATA | -0.276 |
| GCTCGTAA | -0.137 |
| GCCACTAA | -0.198 |
| ACTCGGCA | 0.191 |
| GCACACAA | -0.0901 |
| AAGTGTCA | -0.226 |
| CAAATGTG | 0.154 |
| AGGGAGAT | -0.207 |
| AAGTGAAC | -0.16 |
| GTGCTCCA | -0.118 |

From the supplement of paper PMC3334620
